Results on 89 compounds are retold here after PubChem BioAssay AID360 (National Center for Advancing Translational Sciences (NCATS), 2006).

The whole screen tested about 48,000 compounds, of which about 550 (1.1%) were called active. About 4% were inconclusive and are not listed. No stated cut-off is given here; in the data, active means potency below about 15 µM; inconclusive means mostly about 16 µM to 33 µM; inactive means weaker than that. The list shows a part of the results.
Potency means the concentration at half of the fitted maximal effect.

The test has as its target Lysosomal acid glucosylceramidase (Homo sapiens) (UniProt P04062). The test is described as follows: Glucocerebrosidase.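 Further: the screen sought inhibitors.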 The following applies: purified enzyme, resorufin glucoside fluorescence (screen aimed at inhibitors), 20 min. Summed up: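 Wild-type enzyme at 0.2 nM final in 50mM citric acid/KH2PO4, 10mM sodium taurocholate, 0.01% tween-20, pH 5.9, with resorufin beta-D-glucopyranoside at 30 uM final. Compounds titrated, 20 min at RT, red fluorescence read; AC50 from titration.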
Chain of UniProt P04062 (P04062 whole entry, looked up): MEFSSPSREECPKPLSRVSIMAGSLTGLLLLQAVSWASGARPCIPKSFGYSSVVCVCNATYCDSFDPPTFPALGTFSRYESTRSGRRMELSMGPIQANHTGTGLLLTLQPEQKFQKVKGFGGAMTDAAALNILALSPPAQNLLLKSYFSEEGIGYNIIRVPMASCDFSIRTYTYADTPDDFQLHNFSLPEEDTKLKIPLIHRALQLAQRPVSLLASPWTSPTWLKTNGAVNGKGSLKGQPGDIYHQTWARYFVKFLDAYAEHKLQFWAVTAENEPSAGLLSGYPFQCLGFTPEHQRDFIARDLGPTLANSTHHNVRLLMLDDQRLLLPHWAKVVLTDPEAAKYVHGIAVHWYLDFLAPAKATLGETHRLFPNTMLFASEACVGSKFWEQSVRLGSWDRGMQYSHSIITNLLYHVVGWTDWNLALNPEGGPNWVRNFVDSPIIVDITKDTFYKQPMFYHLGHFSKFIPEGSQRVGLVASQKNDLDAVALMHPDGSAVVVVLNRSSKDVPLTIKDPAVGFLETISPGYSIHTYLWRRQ
Regarding `Cc1csc2nc(CNS(=O)(=O)c3cccnc3)cn12`, the Potency was inactive: > 76.9 µM.

For the compound `COC(=O)c1ccccc1NC(=O)c1ccc(NS(C)(=O)=O)cc1`, the Potency is inactive: > 76.9 µM.

Regarding `COc1ccc(-n2c(SCC(=O)N3CCCC(C)C3)nnc2-c2cccnc2)cc1` (centres undefined), the Potency is inactive: > 76.9 µM.

As to `COc1cc2nc(NCC3CCCO3)n3nc(-c4cccnc4)nc3c2cc1OC` (centres undefined), the Potency was inactive: > 76.9 µM.

In the case of `CCOC(=O)c1c(C)c(C(=O)NC2CCCCC2)c(C)n1CC`, the Potency is inactive: > 76.9 µM.

On to `CC(O)CNc1nc2c(c(=O)n(C)c(=O)n2C)n1Cc1cccc(Br)c1` (centres undefined), for which the Potency is inactive: > 76.9 µM.

As for `CCCN(CCC)CCNC(=O)C1CCN(Cc2nc(-c3ccc(Cl)cc3)oc2C)CC1`, the Potency is inactive: > 76.9 µM.

In the case of `Cc1ccc(S(=O)(=O)Cc2ccc(C(=O)NCCCN3CCN(C)CC3)o2)cc1`, the Potency is inactive: > 76.9 µM.

As to `c1ccc(-c2cnc(CSc3nnc4ccccn34)o2)cc1`, the Potency is inactive: > 76.9 µM.

Consider `CC(C)C(=O)Nc1cccc(-c2nc3ccccc3o2)c1`, for which the Potency was inactive: > 76.9 µM.

For the compound `CS(=O)(=O)N(Cc1nc2sc3c(c2c(=O)[nH]1)CCCC3)C1CCCCC1`, the Potency is inactive: > 76.9 µM.

Take `Cc1ccc(Cn2c(SCC(C)C)nc3c2c(=O)[nH]c(=O)n3C)cc1`: the Potency is inactive: > 76.9 µM.

Consider `O=C(NCc1cccs1)c1cc2ccccc2o1`, for which the Potency was inactive: > 76.9 µM.

As for `O=C(NCc1cccnc1)C1CCN(S(=O)(=O)c2cccnc2)CC1`, the Potency is inactive: > 76.9 µM.

As to `CCNS(=O)(=O)c1ccc(NC(=O)c2ccccc2OCC)cc1`, the Potency was inactive: > 76.9 µM.

As for `Nc1ncc(-c2cc3ccccc3oc2=O)s1`, the Potency was inactive: > 76.9 µM.

`O=C(O)CCC(=O)Nc1ccc(N2CCCCCC2)cc1`: the Potency is inactive: > 76.9 µM.

As to `C=CCOc1cccc(C2/C(=C(/O)c3ccccc3)C(=O)C(=O)N2CCN2CCOCC2)c1` (centres undefined), the Potency is inactive: > 76.9 µM.

For `CCCn1c(=O)c2ccccc2n2c(SCc3nc4ccccc4s3)nnc12`, the Potency is inactive: > 76.9 µM.

On to `CC(C)n1nnnc1SCC(=O)N1CCOCC1`, for which the Potency is inactive: > 76.9 µM.

For `c1ccc(-c2cc(-c3nnc4sc(-c5ccccn5)nn34)[nH]n2)cc1`, the Potency was inactive: > 76.9 µM.

As to `O=C(COc1ccccc1Br)c1ccc(O)cc1O`, the Potency entry is “inactive”.

As to `CC(=O)c1c(C)[nH]c(C(=O)COC(=O)CNS(=O)(=O)c2ccccc2)c1C`, the Potency is inactive: > 76.9 µM.

Turning to `O=C(Nc1ccc2c(c1)OCCO2)c1ccncc1`, the Potency was inactive: > 76.9 µM.

Regarding `C=CCn1c(NC(=O)c2ccco2)c(S(=O)(=O)c2ccccc2)c2nc3ccccc3nc21`, the Potency is inactive: > 76.9 µM.

`COc1cccc(NC(=O)NCCCN2CCN(c3ccc(F)cc3)CC2)c1`: the Potency is inactive: > 76.9 µM.

Regarding `O=C(O)CSCNC(=O)CC12CC3CC(CC(C3)C1)C2`, the Potency is inactive: > 76.9 µM.

On to `COc1ccc2c(c1OC)C(=O)N1C(C(=O)O)Cc3c([nH]c4ccccc34)C21` (centres undefined), for which the Potency is inactive: > 76.9 µM.

Regarding `CC(C)CN(C(=O)COC(=O)CCc1c[nH]c2ccccc12)C1CCS(=O)(=O)C1` (centres undefined), the Potency was inactive: > 76.9 µM.

With `Cc1ccc(S(=O)(=O)N2CCN(C(=O)N3CCOCC3)C2c2ccc(N(C)C)cc2)cc1` (centres undefined), the Potency was inactive: > 76.9 µM.

In the case of `COc1ccc(Cl)c(Cn2c(NCCCN(C)C)nc3c2c(=O)n(C)c(=O)n3C)c1`, the Potency was inactive: > 76.9 µM.

For the compound `C=CCn1c(SCC(=O)N2CCN(C(=O)c3ccco3)CC2)nc2sc(CC)cc2c1=O`, the Potency is inactive: > 76.9 µM.

In the case of `CCOC(=O)C1(CC)NC(c2cccc(F)c2)C2C(=O)N(CC)C(=O)C21` (centres undefined), the Potency was inactive: > 76.9 µM.

For the compound `Cn1cc(C(=O)c2ccc(Cl)cc2)cc1-c1nc2ccccc2n1C`, the Potency result is “inactive”.

On to `Cn1c(=O)[nH]c(=O)c2c1nc(NC1CCCCC1)n2Cc1ccccc1`, for which the Potency is inactive: > 76.9 µM.

Consider `O=C(c1ccc(S(=O)(=O)N2CCOCC2)cc1)N(Cc1ccco1)Cc1cccs1`, for which the Potency is inactive: > 76.9 µM.

On to `CCCCOC(=O)C1Cc2ccccc2C(=O)O1` (centres undefined), for which the Potency is inactive: > 76.9 µM.

As to `COc1ccc(C(=O)c2ccc(N3CCN(C4CC(=O)NC4=O)CC3)cc2)cc1F` (centres undefined), the Potency is inactive: > 76.9 µM.

For the compound `CCCOC(=O)C1=C(C)NC2=C(C(=O)C(C(=O)OC)C(C)C2)C1c1ccc(N(CC)CC)cc1` (centres undefined), the Potency was inactive: > 76.9 µM.

Turning to `COC(=O)c1cc(C(=O)OC)cc(S(=O)(=O)Nc2ccc(Cl)c(N)c2)c1`, the Potency was inactive: > 76.9 µM.

For `COc1ccc(S(=O)(=O)c2c(N)n(Cc3ccco3)c3nc4ccccc4nc23)cc1`, the Potency is inactive: > 76.9 µM.

As for `CCOC(=O)c1ccc(NC(=O)Nc2ccc(S(N)(=O)=O)cc2)cc1`, the Potency is inactive: > 76.9 µM.

On to `COc1c(S(=O)(=O)N2CCCC2)ccc(Cl)c1Cl`, for which the Potency was inactive: > 76.9 µM.

With `COc1cc(NC(=O)CS(=O)(=O)c2ccc(C)cc2)cc(OC)c1OC`, the Potency is inactive: > 76.9 µM.

As to `COc1cccc(C2C(C(=O)c3sc(C)nc3C)=C(O)C(=O)N2CCN(C)C)c1OC` (centres undefined), the Potency was inactive: > 76.9 µM.

In the case of `O=C(CC1SCCNC1=O)Nc1cccc(C(F)(F)F)c1` (centres undefined), the Potency is inactive: > 76.9 µM.

Regarding `CNc1oc(Cc2ccccc2)nc1S(=O)(=O)c1ccccc1`, the Potency was inactive: > 76.9 µM.

Regarding `Nn1c(=O)c2ccccc2n2c(SCc3ccccc3)nnc12`, the Potency is inactive: > 76.9 µM.

As to `CCOc1ccc(NC(=O)C2CC(=O)N(CC)C(=Nc3ccc4c(c3)OCO4)S2)cc1` (centres undefined), the Potency is inactive: > 76.9 µM.

For `Cc1cc(Oc2ccccc2)nc(OCC#N)n1`, the Potency was inactive: > 76.9 µM.

Take `COc1ccc2[nH]c3ccccc3c2c1`: the Potency was inactive: > 76.9 µM.

Regarding `COC(=O)C1C2C=CC3(CN(Cc4ccco4)C(=O)C13)O2` (centres undefined), the Potency was inactive: > 76.9 µM.

In the case of `CCn1c(SCC(=O)NCc2ccco2)nc2cccnc21`, the Potency is inactive: > 76.9 µM.

In the case of `Cc1oc2c(c1C(=O)NCc1ccccc1)CCCC2`, the Potency was inactive: > 76.9 µM.

With `COc1ccc(-c2ccc(SCC(=O)NCc3ccco3)nn2)cc1`, the Potency was inactive: > 76.9 µM.

As for `COc1ccc2[nH]c(C(=O)O)c(NS(=O)(=O)c3ccc(OC)c(OC)c3)c2c1`, the Potency is inactive: > 76.9 µM.

Regarding `O=C(CCSc1nnc(-c2ccncc2)o1)Nc1ccccc1`, the Potency is inactive: > 76.9 µM.

Turning to `Cc1ccc(C(=O)CC(C(=O)O)n2cccn2)cc1` (centres undefined), the Potency is inactive: > 76.9 µM.

As to `CCCCNC(=O)Nc1ccc(Br)cn1`, the Potency was inactive: > 76.9 µM.

For the compound `CCN(CC)CCOC(=O)c1ccc(NC(=O)CCNC(=O)Cn2ccc3ccccc3c2=O)cc1`, the Potency is inactive: > 76.9 µM.

For `Nc1c(C(=O)NC2CCCC2)sc2nc(-c3cccs3)ccc12`, the Potency was inactive: > 76.9 µM.

Take `C/C(=N\n1nnnc1Nc1ccccc1)c1ccc(N)cc1`: the Potency is inactive: > 76.9 µM.

Take `CCN(CC)CCN1C(=O)C(=O)/C(=C(/O)c2ccc(OCC(C)C)cc2)C1c1ccncc1` (centres undefined): the Potency is inactive: > 76.9 µM.

On to `CN1CCN(c2ccccc2NC(=O)c2ccc(Br)o2)CC1`, for which the Potency was inactive: > 76.9 µM.

Consider `COCCCNC(=O)CCc1nc(-c2ccccc2Cl)no1`, for which the Potency was inactive: > 76.9 µM.

Consider `O=C(CSc1ncnc2sc3c(c12)CCCC3)N1CCC(c2noc3ccc(F)cc23)CC1`, for which the Potency is inactive: > 76.9 µM.

In the case of `CCOc1cc(-c2c(C)c(CC)nc(N)c2C#N)ccc1O`, the Potency was inactive: > 76.9 µM.

For `CC1=C(C(=O)OCC2CCCO2)C(c2ccncc2)C2=C(CC(C)(C)CC2=O)N1` (centres undefined), the Potency is inactive: > 76.9 µM.

For the compound `O=C(CSc1nc2cc(Cl)ccc2o1)c1cccs1`, the Potency was inactive: > 76.9 µM.

Take `CCn1c(SCC(=O)Nc2cc3oc4ccccc4c3cc2OC)nnc1-c1cccs1`: the Potency was inactive: > 76.9 µM.

For the compound `Cc1ccc(SCc2[nH]nc3c2C2(CCSCC2)C(C#N)=C(N)O3)cc1`, the Potency was inactive: > 76.9 µM.

For the compound `Cc1nnc(N(Cc2ccccc2)C(=O)c2cnccn2)s1`, the Potency was inactive: > 76.9 µM.

Consider `O=C(O)C1CC=C(Cl)CC1C(=O)NCc1ccccc1` (centres undefined), for which the Potency is inactive: > 76.9 µM.

On to `CCCCNC(=O)CCC(=O)Nc1ccc2nc(N3CCOCC3)cc(C)c2c1`, for which the Potency was active: 3.76 µM.

As to `CCOC(=O)c1c(C)[nH]c(C(=O)OCC(=O)N2c3ccccc3CC2C)c1C` (centres undefined), the Potency is inactive: > 15.4 µM.

On to `O=C(CN1C(=O)NC2(CCCCC2)C1=O)NCCC1=CCCCC1`, for which the Potency was inactive: > 76.9 µM.

Turning to `CCOC(=O)c1cnc(SCc2nc(N)nc(Nc3ccc(C)cc3)n2)nc1N`, the Potency was inactive: > 76.9 µM.

`Cc1cccc(C)c1NC(=O)CSCC(=O)O`: the Potency is inactive: > 76.9 µM.

Regarding `CCN(CCCNC(=O)C1CCN(S(=O)(=O)N2CCOCC2)CC1)c1cccc(C)c1`, the Potency is inactive: > 76.9 µM.

Regarding `CCOC(=O)C1CCCN(C2CC(=O)N(c3ccc(C)c(C)c3)C2=O)C1` (centres undefined), the Potency was inactive: > 76.9 µM.

With `CCC(=O)Nc1cccc(NC(=O)CSc2nnc(-c3ccc(NS(C)(=O)=O)cc3)n2C)c1`, the Potency is inactive: > 76.9 µM.

With `Cc1nc2cc(S(=O)(=O)N(C)C)ccc2n1-c1ccccc1`, the Potency was inactive: > 76.9 µM.

Regarding `Cc1ccccc1Oc1ccc(Oc2ccccc2C)nn1`, the Potency was inactive: > 76.9 µM.

`C/C(N)=C(/C#N)C(=O)CSc1ccc2c(c1)OCCO2`: the Potency was inactive: > 76.9 µM.

Turning to `CCC1S/C(=C(\C#N)C(=O)NCc2ccco2)N(c2ccc(F)cc2)C1=O` (centres undefined), the Potency was inactive: > 76.9 µM.

Turning to `FC(F)(F)c1cnc(Oc2ccc(-c3nnco3)cc2)c(Cl)c1`, the Potency is inactive: > 76.9 µM.

For `COC(=O)c1cc(NC(=O)C23CCC(C)(C(=O)O2)C3(C)C)cc(C(=O)OC)c1` (centres undefined), the Potency was inactive: > 76.9 µM.

For `COc1ccccc1NC(=O)CN1CCN(CC(=O)Nc2ccc(F)cc2)CC1`, the Potency result was “inactive”.

Consider `CC(C)=CCC/C(C)=C/CCC(C)NCCN1CCNCC1` (centres undefined), for which the Potency was inactive: > 76.9 µM.
